Source: PubChem BioAssay (NCI)
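These data come from cells grown in 96-well plates and exposed to compound for 48 hours at five concentrations. GI50: concentration for 50% inhibition of growth. TGI is the concentration that stops growth completely.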

These compounds were tested on NCI-H322M lung (assay: DTP human tumour cell line panel, 48 h).
`COc1ccc(-c2c3c(nc4[nH]c(=S)[nH]c(=S)c24)CCCC3)cc1OC` showed a TGI of over 100 µM. With `CCC1(N)C(=O)OCc2c1cc1n(c2=O)Cc2cc3ccccc3nc2-1` (stereo unspecified) the GI50 was 21.6 µM and the TGI was over 100 µM. Compound `COC(=O)C1SC[C@H]2C(=O)N(c3ccccc3)C(=O)N12` (stereo partly specified) has a TGI of over 100 µM. For `C[C@H]1[C@H](C)CC[C@]2(C(=O)OC3OC(CO)C(O)C(O)C3O)CC[C@]3(C)C(=CC[C@@H]4[C@@]5(C)C[C@@H](O)[C@@H]6OC(=O)c7cc(O)c(O)c(O)c7-c7c(cc(O)c(O)c7O)C(=O)OC[C@]6(CO)[C@@H]5CC[C@]43C)[C@H]12` (stereo partly specified), the TGI was over 100 µM. With `Cc1cc(C)c(O)c(CNCCCNCc2cc(C)cc(C)c2O)c1` the GI50 was 2.43 µM and the TGI was 12.2 µM. `ClCCc1ccccc1CC1=NCCc2ccccc21` was tested, and the TGI was over 100 µM. Work on `CN[C@H]1CC[C@]23C[C@]24CC[C@]2(C)[C@@H]([C@H](C)N(C)C)CC[C@@]2(C)[C@@H]4CC[C@H]3C1(C)C` yielded a TGI of 39 µM. `CCOC1=NC(C(F)(F)F)(C(F)(F)F)N=C(N2CCCCC2)O1` gave a TGI of over 100 µM. Compound `COc1ccc2c(c1)c(-c1ccc(-c3cn(C)c4ccc(OC)cc34)o1)cn2C` has a GI50 of over 100 µM and a TGI of over 100 µM. For `Clc1nc(-c2ccccc2)nc(Cl)c1Cl`, the TGI was 27.4 µM. `CCOc1ccc(N=Cc2ccc3ccccc3n2)cc1` showed a TGI of over 100 µM. With `COc1ccc(C(=O)N(Cc2cccnc2)C(=S)N(Cc2cccnc2)C(=O)c2ccc(OC)cc2)cc1` the TGI was over 100 µM. Compound `CCOC(=O)C(=O)C(/C(=N/N(C)C)C(=O)Nc1ccc(C)cc1C)c1nc2ccccc2[nH]c1=O` (stereo unspecified) has a TGI of over 100 µM. Compound `CC(C)=CCc1c(O)c(C(=O)CC(C)C)c(O)c2c(-c3ccccc3)cc(=O)oc12` has a GI50 of 10.6 µM and a TGI of over 50 µM. For `CC(C)(C)OC(=O)N1CCC(NC(=O)NC2CCN(C(=O)OC(C)(C)C)CC2)CC1`, the TGI was over 100 µM. With `O=C1c2cc([N+](=O)[O-])sc2C(=O)c2cc([N+](=O)[O-])sc21` the TGI was 23 µM. `COc1cc(=O)oc(/C=C/C=C/C=C/C(C)=C\C2(C)OC(C)C(C)(O)C2O)c1C` (stereo unspecified) gave a TGI of over 100 µM. Compound `CC(C)(C)C1CCC(=O)C(C(O)CC2CC(=O)N(c3ccccc3)C(=O)C2)C1` (stereo unspecified) has a TGI of over 100 µM. `O=C1CCC(N2C(=O)c3cccc(NCCOCCOCCNC(=O)c4cc5c(o4)C(=O)c4ccccc4C5=O)c3C2=O)C(=O)N1` (stereo unspecified) was tested, and the GI50 was 1.81 µM and the TGI was 3.28 µM. `CCCC(=O)Nc1c(I)cc(I)c(CC(CC)C(=O)O)c1I` (stereo unspecified) was tested, and the GI50 was over 100 µM and the TGI was over 100 µM. `CCOC(=O)/C=C(/C(=O)OCC)n1ccc(=O)n(CC(=O)OCC)c1=O` gave a TGI of 25 µM. `CCCCCCC(O)C(O)CCC(O)C1CCC(CCCCC(O)CC2=CC(C)OC2=O)O1` (stereo unspecified) showed a GI50 of 19.7 µM and a TGI of 52.2 µM. `O=C1CSC(c2cccc(Oc3ccccc3)c2)N1c1cccc(Cl)c1Cl` (stereo unspecified) gave a TGI of over 100 µM. `CS(=O)(=O)CCC(N)P(=O)(O)O` (stereo unspecified) was tested, and the TGI was over 100 µM. For `O=C1NC(N2CCCCC2)=N/C1=C\c1ccccc1`, the TGI was over 100 µM. `CCCCC(N)CSSCC(N)CCCC` (stereo unspecified) showed a TGI of over 100 µM. In the case of `COc1c(Cl)[c]([Hg][O]C(C)=O)c(NCC(C)=O)c(OC)[c]1[Hg][O]C(C)=O`, the GI50 was 21.1 µM and the TGI was 52.5 µM. Compound `CC(=O)OC1(C#N)CC2OC1C1N=NN(C(=O)OC(C)(C)C)C21` (stereo unspecified) has a TGI of over 100 µM. With `COc1cc2c3c(c1OC)C(=O)C(=O)C1=C3N(CCC1)CC2` the TGI was over 100 µM. With `O=C1CN(c2ccccc2)C(=O)CN1CCN1CC(=O)N(c2ccccc2)CC1=O` the TGI was over 100 µM. `COc1cc2c3cc1Oc1c(OC)c(OC)cc4c1C(Cc1ccc(O)c(c1)-c1cc(ccc1OC)CC3N(C)CC2)N(C)CC4` (stereo unspecified) showed a TGI of over 100 µM. `C(/C=C/Nc1ccc(-c2ccccc2)cc1)=Nc1ccc(-c2ccccc2)cc1` gave a TGI of over 100 µM. `CN(C)C1C(=O)C(C(N)=O)=C(O)C2(O)C(=O)C3=C(O)c4c(O)cccc4C(C)(O)C3CC12` (stereo unspecified) gave a TGI of over 100 µM. `CCCCCC(=C/c1ccccc1)/C=N/N=C(N)N` gave a GI50 of 1.51 µM and a TGI of 2.9 µM. In the case of `COc1c2occc2cc2ccc(=O)oc12`, the TGI was over 100 µM. `CCC(C)(C)NS(=O)(=O)c1ccccc1` was tested, and the TGI was over 100 µM. Compound `CCCCCCC/C=C1\CCC(CN(C)C)C1=O` (stereo unspecified) has a TGI of 33.3 µM. Compound `CCN(CC)CCC(=O)N1C/C(=C/c2ccccc2)C(=O)/C(=C\c2ccccc2)C1` has a TGI of 16 µM. Work on `CCNC1=C(NC(=O)CCl)C(=O)c2ccccc2C1=O` yielded a TGI of 33.1 µM. `Cc1cc(=O)n2nc(CSc3n[nH]c(=S)s3)sc2n1` gave a TGI of over 100 µM. `COc1cc2c(cc1OC)-c1ncc3cc(OC)c(OC)cc3c1C2` gave a GI50 of over 50 µM and a TGI of over 50 µM. In the case of `CCCCCCC(=O)c1ccc2ccccc2c1O`, the TGI was over 100 µM. Work on `CCOc1cc(/C=C2\N=C(c3ccccc3)N(c3nc4ccccc4s3)C2=O)ccc1O` yielded a TGI of over 100 µM. In the case of `COCC(=O)NC/C=C/c1ccc2ncnc(Nc3ccc(Oc4ccc(C)nc4)c(C)c3)c2c1`, the GI50 was 15.9 µM and the TGI was over 71.2 µM. Work on `Nc1nc(Cc2ccccc2)nc(Cc2ccccc2)c1-c1ccccc1` yielded a TGI of over 100 µM. `C=CC(C)(C)n1cc(C2=C(O)C(=O)C(c3c(CC=C(C)C)[nH]c4ccccc34)=C(O)C2=O)c2ccccc21` was tested, and the TGI was 12.7 µM. With `OCCCCCNc1ccnc2cc(Cl)ccc12` the TGI was over 100 µM. For `CSS(C)(=O)=O`, the TGI was over 100 µM. For `COc1ccc(/C=C2/SC(c3c(O)ccc4ccccc34)N(NC(=O)CCCCCCCCC(=O)NN3C(=O)/C(=C\c4ccc(OC)c(OC)c4)SC3c3c(O)ccc4ccccc34)C2=O)cc1OC` (stereo unspecified), the TGI was over 63.4 µM. `COc1ccc2c(c1OC)C(C=C(c1ccccc1)c1ccccc1)CN(C)C2` (stereo unspecified) showed a TGI of over 100 µM. Compound `CCCc1n(Cc2ccc3ccccc3n2)cc[n+]1Cc1ccc2ccccc2c1` has a GI50 of 3.46 µM and a TGI of 15 µM. Work on `COc1ccc(NC(=O)CC(=O)N2N=C(C)C(N=Nc3ccc(C(=O)O)cc3)C2=O)cc1` (stereo unspecified) yielded a TGI of over 100 µM. Compound `COC(=O)C1=C(O)c2cc3c(cc2[C@H](c2cc(OC)c(OC)c(OC)c2)C1)OCO3` has a TGI of over 100 µM. `N#Cc1ccc(NC(=O)Nc2nc3ccc(OC(F)(F)F)cc3s2)cc1` gave a GI50 of 2.4 µM and a TGI of 11.2 µM. `CCOC(=O)NC(=O)c1cn(C2OC(COC(=O)CCCCCCCCC(=O)OCC3OC(n4cc(C(=O)NC(=O)OCC)c(=O)[nH]c4=O)C4OC(C)(C)OC34)C3OC(C)(C)OC32)c(=O)[nH]c1=O` (stereo unspecified) was tested, and the TGI was over 100 µM. For `O=C(Nc1ccc(N2CCNCC2)cn1)c1[nH]ncc1Nc1ncnc2sccc12`, the GI50 was 3.02 µM and the TGI was 14.3 µM. With `O=S(=O)(NCCNc1cc(-c2cn(-c3ccccc3)nc2-c2cccc(O)c2)ccn1)c1ccc(Br)cc1` the GI50 was 3.29 µM and the TGI was 30.3 µM. With `COc1c(N2CCN(CN3C(=O)C(=O)c4ccccc43)C(C)C2)c(F)cc2c(=O)c(C(=O)O)cn(C3CC3)c12` (stereo unspecified) the GI50 was 27.4 µM and the TGI was 97.5 µM. For `O=c1c(-c2nc3ccccc3[nH]2)cc2ccccc2n1Cc1cn(Cc2ccccc2Cl)nn1`, the GI50 was 2.5 µM and the TGI was 6.94 µM. Compound `CC1OC(OC2C[C@](O)(C(=O)CBr)Cc3c(O)c4c(c(O)c32)C(=O)c2ccccc2C4=O)C(F)C(O)C1O` (stereo partly specified) has a TGI of over 100 µM. In the case of `Nc1ncnc2c1cnn2COCC(O)CO` (stereo unspecified), the TGI was over 100 µM. In the case of `O=c1oc2ccccc2n1CCCn1c(=O)oc2ccccc21`, the TGI was over 100 µM. With `COc1cc(OC2OC(CO)C(O)C(O)C2O)c2c(c1)O[C@@H]1[C@H](O)Oc3cc(OC)c(OC)cc3[C@]1(O)C2=O` (stereo partly specified) the TGI was over 25 µM. Work on `COc1ccc(C[C@H]2NC[C@H](O)[C@H]2OC(C)=O)cc1` yielded a TGI of 0.38 µM. `COc1ccc(Br)c(C=Nc2cccc3cc(OC)c(OC)cc23)c1` gave a TGI of over 100 µM. `COc1ccc(-c2nc(SC)n(C3OC(COC(C)=O)C(OC(C)=O)C(OC(C)=O)C3OC(C)=O)c(=O)c2C#N)cc1` (stereo unspecified) showed a TGI of over 100 µM. For `Nc1nc(CC2(O)CCCCC2)cc(-c2ccccc2)n1`, the TGI was over 100 µM. `COc1ccc2c(c1)c(=O)c1c(NCCCN(C)C)ccc3ncn2c31` gave a TGI of 18.1 µM. For `NC(N)=NC(N)=Nc1ccc(S(N)(=O)=O)cc1`, the TGI was over 100 µM.
